# Reference: patent US6436654 (PHARMACIA AND UPJOHN, dated 2002)
# Target: GAL4/HIF 71-826 (human, UniProt P04386 1-147 (Saccharomyces cerevisiae entry))
# Experiment: cell-based or functional assay
binder,measurement,value
"SRC-1 (full-length) (other, human, UniProt Q15788 1-1441, looked up, [35S]methionine-labeled (in vitro translated) in the GST precipitation assay) MSGLGDSSSDPANPDSHKRKGSPCDTLASSTEKRRREQENKYLEELAELLSANISDIDSLSVKPDKCKILKKTVDQIQLMKRMEQEKSTTDDDVQKSDISSSSQGVIEKESLGPLLLEALDGFFFVVNCEGRIVFVSENVTSYLGYNQEELMNTSVYSILHVGDHAEFVKNLLPKSLVNGVPWPQEATRRNSHTFNCRMLIHPPDEPGTENQEACQRYEVMQCFTVSQPKSIQEDGEDFQSCLICIARRLPRPPAITGVESFMTKQDTTGKIISIDTSSLRAAGRTGWEDLVRKCIYAFFQPQGREPSYARQLFQEVMTRGTASSPSYRFILNDGTMLSAHTKCKLCYPQSPDMQPFIMGIHIIDREHSGLSPQDDTNSGMSIPRVNPSVNPSISPAHGVARSSTLPPSNSNMVSTRINRQQSSDLHSSSHSNSSNSQGSFGCSPGSQIVANVALNQGQASSQSSNPSLNLNNSPMEGTGISLAQFMSPRRQVTSGLATRPRMPNNSFPPNISTLSSPVGMTSSACNNNNRSYSNIPVTSLQGMNEGPNNSVGFSASSPVLRQMSSQNSPSRLNIQPAKAESKDNKEIASILNEMIQSDNSSSDGKPLDSGLLHNNDRLSDGDSKYSQTSHKLVQLLTTTAEQQLRHADIDTSCKDVLSCTGTSNSASANSSGGSCPSSHSSLTERHKILHRLLQEGSPSDITTLSVEPDKKDSASTSVSVTGQVQGNSSIKLELDASKKKESKDHQLLRYLLDKDEKDLRSTPNLSLDDVKVKVEKKEQMDPCNTNPTPMTKPTPEEIKLEAQSQFTADLDQFDQLLPTLEKAAQLPGLCETDRMDGAVTSVTIKSEILPASLQSATARPTSRLNRLPELELEAIDNQFGQPGTGDQIPWTNNTVTAINQSKSEDQCISSQLDELLCPPTTVEGRNDEKALLEQLVSFLSGKDETELAELDRALGIDKLVQGGGLDVLSERFPPQQATPPLIMEERPNLYSQPYSSPSPTANLPSPFQGMVRQKPSLGTMPVQVTPPRGAFSPGMGMQPRQTLNRPPAAPNQLRLQLQQRLQGQQQLIHQNRQAILNQFAATAPVGINMRSGMQQQITPQPPLNAQMLAQRQRELYSQQHRQRQLIQQQRAMLMRQQSFGNNLPPSSGLPVQMGNPRLPQGAPQQFPYPPNYGTNPGTPPASTSPFSQLAANPEASLANRNSMVSRGMTGNIGGQFGTGINPQMQQNVFQYPGAGMVPQGEANFAPSLSPGSSMVPMPIPPPQSSLLQQTPPASGYQSPDMKAWQQGAIGNNNVFSQAVQNQPTPAQPGVYNNMSITVSMAGGNTNVQNMNPMMAQMQMSSLQMPGMNTVCPEQINDPALRHTGLYCNQLSSTDLLKTEADGTQQVQQVQVFADVQCTVNLVGGDPYLNQPGPLGTQKPTSGPQTPQAQQKSLLQQLLTE","GAL4-responsive luciferase activity in COS7 cells, hypoxia, against hypoxia without exogenous coactivators",34 fold
